54 sequences from article PMC7819943, “Rice protein-binding microarrays: a tool to detect cis-acting elements near promoter regions in rice” can be followed below.

Some of the results follow.

The target in this experiment is T1, OsWOX13 (Oryza sativa, UniProt Q5QMM3 1-267).
T1 sequence: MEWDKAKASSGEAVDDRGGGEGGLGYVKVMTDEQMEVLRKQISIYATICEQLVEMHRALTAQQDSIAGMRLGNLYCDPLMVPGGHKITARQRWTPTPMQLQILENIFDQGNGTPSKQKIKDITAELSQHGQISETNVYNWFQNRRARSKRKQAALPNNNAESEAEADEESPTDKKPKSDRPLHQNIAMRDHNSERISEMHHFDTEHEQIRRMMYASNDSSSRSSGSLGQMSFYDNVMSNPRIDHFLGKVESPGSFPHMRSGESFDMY
Nature of the experiment: protein-binding microarray (RPBM); PBS, 2% BSA, 51.3 ng/ul salmon testes DNA, 50 uM zinc acetate, 200 nM TF, 25 C, 1 h; high values mean tight binding. To be noted: protein: recombinant; tags: N-terminal polyhistidine and DsRed monomer fusion (pET32a); label: CyDye5-dUTP incorporated in the synthesized complementary strand; 3' TTTTT single-stranded linker to array surface; dsDNA, one strand shown. A digest of the protocol:
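An Axon 4000B scanner gave the binding signal as per-feature fluorescence intensity in arbitrary units. This followed washing of a custom Agilent array that had been incubated for 1 h at 25 °C with 200 nM protein in PBS, 2% BSA, salmon testes DNA and 50 µM zinc acetate. The proteins were transcription factors fused at the N-terminus to polyhistidine and DsRed, expressed in E. coli BL21-CodonPlus and purified on Ni–NTA.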
With “TTATGCCAAATCTAATACTTGATTACTACTCCATCCGTCCCGGAGTCACCTAGTGCAG”, the binding signal is 3980 fluorescence intensity (a.u.).

On to “ATCTAAGTATGATTAGCATACTATGACATCTATAGACACGCGGAGTCACCTAGTGCAG”, for which the binding signal is 15800 fluorescence intensity (a.u.).

For “ATTTATTAAATCTAATTAATTCATTATTAGTAAATATTTACGGAGTCACCTAGTGCAG”, the binding signal is 5100 fluorescence intensity (a.u.). The figure for “TGTCAATTTGTATTTTGAAGGGTTGGTCCAATACACTAAGCGGAGTCACCTAGTGCAG” is 4980 fluorescence intensity (a.u.); for “TTTCATTTTAATTGATGTTTTGGACAATACACGGTCTACCCGGAGTCACCTAGTGCAG” it is 29300 fluorescence intensity (a.u.); for “CCCAACGATAATTATGTTTCATTCTCAATGGCAGTAAAAGCGGAGTCACCTAGTGCAG” it is 14400 fluorescence intensity (a.u.). Consider “ATTGATTGATCAAGACTGCATGGCAATACTCGACGTGCTGCGGAGTCACCTAGTGCAG”, for which the binding signal was 64800 fluorescence intensity (a.u.). The figure for “AAAAGATAAATTTACATATAAACAGTACGCTACTATTTATCGGAGTCACCTAGTGCAG” is 6070 fluorescence intensity (a.u.); for “GACTAATTAACCGCCAACCCCACTACCGCCTCTCTCTTTGCGGAGTCACCTAGTGCAG” it is 35000 fluorescence intensity (a.u.); for “GGTTGTTAATTTAGAGTGTGGTTGAGCAAACCCTCAACTCCGGAGTCACCTAGTGCAG” it is 7780 fluorescence intensity (a.u.). With “TCAAAATTTCAATGAAAATTTTCTCTCCTTGCCACTTCAACGGAGTCACCTAGTGCAG”, the binding signal is 3500 fluorescence intensity (a.u.). The figure for “AATAAATTACCCATACATCTGCGCGGGCTTTCTTCCTAGTCGGAGTCACCTAGTGCAG” is 20400 fluorescence intensity (a.u.); for “GTAGTTAATTATGAAACGTTTAGAAAATATATTTATAAGACGGAGTCACCTAGTGCAG” it is 5580 fluorescence intensity (a.u.).

Consider “GCTGACGTAGATAATCTTATGCTTTCAAATTTTACGATAGCGGAGTCACCTAGTGCAG”, for which the binding signal is 5670 fluorescence intensity (a.u.).

On to “AAGATTAATAATACTACTAATTATAACTCATTTCGTGTGACGGAGTCACCTAGTGCAG”, for which the binding signal is 6850 fluorescence intensity (a.u.). Regarding “GATGATTATCATGGGATGCTTCATTTGATAATCTTAGAAACGGAGTCACCTAGTGCAG”, the binding signal was 14400 fluorescence intensity (a.u.). Take “CCTCCGAATATTCAATTTGTTGAGTTATTGACGTATAGATCGGAGTCACCTAGTGCAG”: the binding signal was 4190 fluorescence intensity (a.u.). As to “GAATATATATAATTTATAATTTACTAAAATTTGATATTAACGGAGTCACCTAGTGCAG”, the binding signal is 8740 fluorescence intensity (a.u.). Regarding “TCCTTCATAATTACCTCGCTTCAAAGGACGCAAATATAGTCGGAGTCACCTAGTGCAG”, the binding signal was 5810 fluorescence intensity (a.u.).

With “TCTATCCTTAATCAATCTGTTGCATGTCCGCATTTGTTAGCGGAGTCACCTAGTGCAG”, the binding signal was 4620 fluorescence intensity (a.u.).

Consider “GATTCTGATTATATATATCGAAATAAAGAAATATTATTGTCGGAGTCACCTAGTGCAG”, for which the binding signal was 11200 fluorescence intensity (a.u.). As for “TGGTGTTAATATGAAATTTCATCAATTTAAAACTAGCCTCCGGAGTCACCTAGTGCAG”, the figure is 12000 fluorescence intensity (a.u.). The figure for “GTTATGATTTAAATATCAATATTGAAAATTAAATTTATATCGGAGTCACCTAGTGCAG” is 15600 fluorescence intensity (a.u.); for “TCAATAGAAAATAAACTGATTCATGTTAAAACCTTCACACCGGAGTCACCTAGTGCAG” it is 5530 fluorescence intensity (a.u.); for “ATTTTACTCTTAGCAATCAATTTAGCATATTTATCTATTCCGGAGTCACCTAGTGCAG” it is 5790 fluorescence intensity (a.u.). In the case of “TTTCTTCATAGATTGAAGCTCTTGTTAAGTTTGAAACCTACGGAGTCACCTAGTGCAG”, the binding signal was 4020 fluorescence intensity (a.u.). As for “AATTAAAATGGAAGGAATTACATTAACTATGAATTCATTGCGGAGTCACCTAGTGCAG”, the figure is 5160 fluorescence intensity (a.u.). As for “TTCCAATCACACAAGTCAGTCCAGATGTCATCAAATACAGCGGAGTCACCTAGTGCAG”, the figure is 17400 fluorescence intensity (a.u.); as for “ATGAGTTTAATTTGGGTGTTTGACGAGAGCGAAGAGTCGACGGAGTCACCTAGTGCAG”, 6460 fluorescence intensity (a.u.). Turning to “ACTGCTAAATTTATGAAAATAAGAAGAGAGAAATTGGTTACGGAGTCACCTAGTGCAG”, the binding signal is 4730 fluorescence intensity (a.u.). As for “ACCTACTCACAATCACAGAATCACATCATAACATTATTGTCGGAGTCACCTAGTGCAG”, the binding signal is 4160 fluorescence intensity (a.u.). Consider “GCTGATGAGTTTGTGAAACTGTTTCAGCAAGAGTATGGCTCGGAGTCACCTAGTGCAG”, for which the binding signal was 11600 fluorescence intensity (a.u.). On to “ATCATAATTTGAAATTCAAATTCATACTGTTCAAACAAAGCGGAGTCACCTAGTGCAG”, for which the binding signal is 17600 fluorescence intensity (a.u.). As for “CTCCCTTTAATTATCATCACAAGACCTCTCTCTCTCTCTCCGGAGTCACCTAGTGCAG”, the figure is 12800 fluorescence intensity (a.u.); as for “TGGACAAATTGTGATGATTTGATGAAGATCACATTCTAAACGGAGTCACCTAGTGCAG”, 30200 fluorescence intensity (a.u.); as for “TATGATGTGCACTGATGATGAATTGTTTCGTTCTCCGAAGCGGAGTCACCTAGTGCAG”, 9200 fluorescence intensity (a.u.). The figure for “CACTCATTCACCTTTACTAATTTATATCTTTTGATGTTTGCGGAGTCACCTAGTGCAG” is 7260 fluorescence intensity (a.u.); for “TTTAATTATTAACACCAAGGTGTCATGCCGTGAGTGTATCCGGAGTCACCTAGTGCAG” it is 16700 fluorescence intensity (a.u.); for “TGAAATTGATTGTCGTAGGAATTCAGGTGCTTTACTCAAGCGGAGTCACCTAGTGCAG” it is 36100 fluorescence intensity (a.u.).

In the case of “TCGATGTACTCAAGATTGATGATATGCTTAAGAAGGGATGCGGAGTCACCTAGTGCAG”, the binding signal was 7440 fluorescence intensity (a.u.). On to “ATAATTGAAAGTTAATCAAACTGGATATAGAAATTATTATCGGAGTCACCTAGTGCAG”, for which the binding signal was 23800 fluorescence intensity (a.u.).

With “TTCCACTTGATTTCGTGAAATTTCGAATTTCACCGGTGCTCGGAGTCACCTAGTGCAG”, the binding signal was 4120 fluorescence intensity (a.u.). Regarding “TATTTAATTGGTCCTATGGTACTTGCAGATTAATGTTGGCCGGAGTCACCTAGTGCAG”, the binding signal was 37600 fluorescence intensity (a.u.). As for “ACTTAGATTAACTAACATATATGTATAAATAGGTACACAACGGAGTCACCTAGTGCAG”, the figure is 15700 fluorescence intensity (a.u.); as for “ATTATTTGATTGTGGTTTAATTGTTGGTGCAACAGGGTTACGGAGTCACCTAGTGCAG”, 47900 fluorescence intensity (a.u.); as for “TATATAATTAACTTGGACCATAGTACATGTGGTTTTATAACGGAGTCACCTAGTGCAG”, 11100 fluorescence intensity (a.u.). For the sequence “AAATGATGTTGATACTTGATTGGTGATATGGCACTAGTGTCGGAGTCACCTAGTGCAG”, the binding signal is 34600 fluorescence intensity (a.u.). The figure for “GAAATTGGAGATGATGTGACTGAAAAGTTGTGTGTGTATGCGGAGTCACCTAGTGCAG” is 17200 fluorescence intensity (a.u.); for “ATCTAGGATTGGATAAACGAATTTGAACGAATTCATACATCGGAGTCACCTAGTGCAG” it is 5800 fluorescence intensity (a.u.). Regarding “GTTGTGATTGGTTGAGTAGTAGAGGTAGGTGGGAAAAGTGCGGAGTCACCTAGTGCAG”, the binding signal is 43500 fluorescence intensity (a.u.). Regarding “CATAAATTGCATGGGACAATCCTCTAGTTTTATTAAAAGACGGAGTCACCTAGTGCAG”, the binding signal was 12200 fluorescence intensity (a.u.).

On to “AAAGATTTATACATACTGCATGTTGGAATTTGAAGTCCATCGGAGTCACCTAGTGCAG”, for which the binding signal was 3640 fluorescence intensity (a.u.).

Turning to “ACGCTATAATTAACTGTTTCGTTTTCCGTGCCGAGGGAATCGGAGTCACCTAGTGCAG”, the binding signal was 22900 fluorescence intensity (a.u.). As for “TACGATTGACAAAGATATAAAATTTAAATTTAAAAGTATCCGGAGTCACCTAGTGCAG”, the binding signal is 20800 fluorescence intensity (a.u.).
